Laboratory results reported in the supplement of paper PMC3334620.
The full ranking holds about 33,000 sequences; the median of “E-score (-0.5 to 0.5)” is about -0.054, and the highest 2% start at about 0.35. Some of the results follow.

biological target: T1, Stb5 (UniProt P38699); experiment: PBM E-score (8-mer binding enrichment) (E-score (-0.5 to 0.5)); higher = stronger / more preferred TF binding; most listed sequences are background and not binding sites; conditions: protein concentration: 200 nM; construct: GST-full length
T1 sequence: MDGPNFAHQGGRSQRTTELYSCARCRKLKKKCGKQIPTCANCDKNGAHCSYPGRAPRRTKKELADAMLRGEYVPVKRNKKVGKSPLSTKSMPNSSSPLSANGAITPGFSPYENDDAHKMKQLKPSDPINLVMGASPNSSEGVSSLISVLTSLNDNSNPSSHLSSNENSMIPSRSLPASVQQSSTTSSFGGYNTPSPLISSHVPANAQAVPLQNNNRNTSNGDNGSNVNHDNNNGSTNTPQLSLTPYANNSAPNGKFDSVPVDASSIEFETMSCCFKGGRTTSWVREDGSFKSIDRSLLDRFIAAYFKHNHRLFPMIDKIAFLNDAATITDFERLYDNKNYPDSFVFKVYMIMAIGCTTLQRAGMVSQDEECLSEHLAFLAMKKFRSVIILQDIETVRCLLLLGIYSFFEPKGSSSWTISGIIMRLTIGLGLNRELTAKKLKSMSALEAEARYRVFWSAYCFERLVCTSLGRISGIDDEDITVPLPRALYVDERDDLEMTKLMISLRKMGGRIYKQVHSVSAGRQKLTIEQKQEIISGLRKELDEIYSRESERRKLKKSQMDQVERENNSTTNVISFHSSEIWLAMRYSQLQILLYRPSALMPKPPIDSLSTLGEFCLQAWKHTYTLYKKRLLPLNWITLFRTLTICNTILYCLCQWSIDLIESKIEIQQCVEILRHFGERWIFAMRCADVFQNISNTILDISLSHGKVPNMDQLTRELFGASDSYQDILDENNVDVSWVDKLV
Outline: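 For each ungapped eight-base word taken together with its reverse complement, the Universal PBM Analysis Suite assigned an E-score. Binding data came from GST-tagged yeast transcription factors, applied at about 100-200 nM, on universal all-10-mer Agilent arrays made double-stranded by primer extension. Fluorescent anti-GST marked bound protein, and scans were normalised with masliner.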

Sequence	PBM E-score
ACCCGGGC	0.261
ATAAGCAG	-0.111
CGCGCGCA	0.179
ATCCTCGC	-0.0309
GCACGTCC	-0.0683
TGTTCTAA	-0.0306
AACGGGAC	0.176
CACCCCGA	0.325
AGTCGACG	-0.026
AGAGCACC	0.0192
ATTAACTC	0.16
TGGCGCAA	-0.0356
GCCGTGAA	0.0682
GGTGTCTA	0.099
AGGGTAGC	-0.176
AGATTAAG	-0.203
GGGTGAAA	0.209
AGCCGAGC	-0.0406
CATGCGTC	-0.0823
ATATCTCG	-0.0476
GAGCGTCA	-0.0864
CGGTATGA	0.292
GAGCGAAC	0.0161
TCAATACA	-0.0573
GTGTGCTA	-0.0481

Sequence	PBM E-score
ATAACACC	0.461
AAGAGTCA	-0.308
AATGAAAG	-0.168
AGCGAGTG	-0.0724
CGGCGCGC	0.275
ATCCAAAC	-0.118
AGATTCAC	-0.0641
AACCAGCC	-0.0373
TATATGGA	-0.256
TACGCTAA	-0.116
ACGTGTTC	-0.158
CATCAGCG	0.0718
CAAAAAAA	0.0275
AGTTCCAC	-0.118
CCGTAGAC	0.0866
ACCTTCCT	-0.0803
AACCCCTC	-0.00844
CAATAACG	0.101
TCTGTGAA	-0.0739
CCCGATAA	0.216
GTATTGCA	-0.049
TATATTCA	-0.0799
CCAAGTGG	-0.253
CGCTCGGA	0.238
TAGTACCA	0.107

Sequence	PBM E-score
CAGTTATA	0.0952
CACGTACG	-0.167
TGAGAGAA	-0.198
AGACGGTC	0.142
GTCACAGA	-0.229
ATAGCGAA	-0.231
CCCTCTAA	-0.206
CAACTCGC	-0.138
ACCTAGAT	-0.154
CGTCCGTA	0.127
CTTGTCCA	-0.301
CAACAATC	-0.18
TAGGCCGA	0.125
CTTATTTA	0.0282
CCAATACC	0.261
GCACCGGA	0.338
CGAGTGGA	-0.107
CTGTTTTA	0.174
CAACATGC	0.0202
AAAAGGTC	-0.0621
TACATATA	0.0481
CCATCTTC	-0.0469
TCACAGGA	-0.188
TGTTGTAA	-0.125
AGACTAGA	-0.17

Sequence	PBM E-score
GGTCCGAA	0.328
ACACCAAC	-0.142
GCGGAACC	0.159
ACGCTACA	-0.221
CAACGTGA	-0.147
ATGATGCG	-0.12
CCGCGCCG	0.288
CCCGAGTC	0.0364
AATCCTTC	-0.0568
CACACCAC	-0.199
TACGTTCA	-0.255
AAACTGCG	0.209
ATGCGCGG	0.309
GTTTGTTA	0.0212
ATGGCAGA	0.00567
ATTGATCG	0.12
CTAGTCGC	-0.00949
CAGGAACA	-0.216
CTAGACAA	-0.0874
GACGTGAA	-0.129
AACTAGCC	-0.148
GAAGCGGC	0.308
AGGGGGGC	-0.15
ACGGCCCC	0.0517
ACAGCAAG	-0.258

Sequence	PBM E-score
ATTTACAA	-0.174
TCCGTCAA	0.229
ATAACTTG	-0.112
AATTTCAG	-0.311
AATAACCG	0.272
CCTTGCCC	-0.0119
AAAACTTA	-0.196
AGCCAAGG	-0.302
AGCTAGAC	-0.127
CTACCCTC	-0.209
ACCAGCAA	0.0414
ACGAGCCT	-0.2
AGCGTATC	-0.134
GCCCTCGA	-0.214
CGTAGGCC	-0.0749
GATTGGCA	-0.187
TCAATCCA	-0.0437
CTAAGCAG	-0.121
ATGGGTTG	-0.292
GCACCCAA	0.0215
GTCATGTA	0.0223
GCGATCAA	-0.0153
ATGAGATA	-0.209
CCGGTCCG	0.295
CCCGTCTC	0.308

Sequence	PBM E-score
TCCGAGGA	0.157
GGACTTAC	0.358
AGACATAC	-0.141
AGAGGCAT	-0.142
CCAGCAAC	-0.052
CGGATTTA	0.452
AGCGTCCG	0.103
AGTGTGAA	-0.153
GAATGTTA	0.06
ATGCATCG	0.0654
AAAGAGAC	-0.0831
ACGGCGAC	0.264
AATTTAGG	-0.0554
AAGCATAA	-0.106
GATGCTAA	0.0589
ACTCCGGC	0.307
ATCGTAGC	-0.217
GACAACTA	-0.06
ACTTGACC	-0.0754
ACCGTGAC	0.254
CGTGGTAC	-0.0493
TCCATACA	-0.157
AAAAATGG	0.00569
TATTTCCA	0.123
AAGCGTTG	-0.212

Sequence	PBM E-score
CTATAGCA	-0.0419
AGGAGAGC	-0.216
AGAAGACA	-0.199
CGGAGCCC	0.0294
ATACAGTA	-0.0999
CCGGGCAG	0.14
CAGCCGCG	0.0138
CAGTCGTC	-0.13
CATCGAGC	-0.00818
CTCCGGTC	0.308
GAATGGCC	0.0263
CCTCCTGA	-0.105
CTACTTAA	-0.173
CATTCAAG	-0.205
AGTCCTAG	-0.238
CCTCCGTA	0.184
GAGTATGC	-0.0395
GACACGTA	-0.103
GGCTCACA	-0.0687
AGCGTCTC	-0.21
AAGGACCG	0.383
CAGCGTAG	-0.0828
CATGTCGG	0.275
ACAGTCGG	0.282
CTTAGTTA	-0.152

Sequence	PBM E-score
GGATGACA	-0.105
ATCCAAGG	-0.0257
AGTCCTAA	-0.218
TAACACGA	-0.00801
TGGACTAA	-0.0846
ACACACGT	-0.161
AGCAAAAA	-0.0919
ACGTAATC	-0.0967
CTTCCGTA	0.107
ACTATCGG	0.299
CAATGTCA	-0.215
CCGAGGCG	0.175
TCACGGCA	0.137
CCACATCA	-0.0508
ACTCTGTG	-0.0679
ACCCCTGA	-0.108
AACCCCGG	0.453
ATGGATTC	-0.299
AATTGAGT	-0.167
CGGTGCCC	0.27
AAAAAAGT	-0.0146
CTGTAACA	-0.198
AAGGTCAT	-0.0505
ACTTCACT	-0.213
AGTTGGCA	-0.271

Sequence	PBM E-score
AATAAGGA	-0.12
ATTTAAAG	0.197
GTGATAGA	0.081
GCAATGAA	-0.113
GCGGAAGC	0.0861
CTGGGACC	-0.117
CCGCGATC	0.313
CTGCTCAA	-0.16
GGCAAGCA	-0.281
ACTGTGAC	-0.142
AACCATAG	-0.146
CATTCCAC	0.0385
AACTCCAG	-0.0878
GGCTTAGA	-0.0994
ACAATCCA	-0.238
AACTTAGC	-0.238
AGATAAAG	0.0838
ATGACTCG	-0.138
ACACGAGC	-0.2
GGATTGCC	0.0199
ATTTAAAT	-0.117
CAAGCATG	-0.252
AATCGGGC	0.209
ACCTTAAT	0.0412
CAATTCAA	-0.261

Sequence	PBM E-score
CTAACGGC	0.135
CGACGGGC	0.308
CATTCGCG	0.0611
TCCGATCA	0.269
GTCAGTGA	-0.0219
CACTACGG	0.138
ACGACGGC	0.146
ACATATAT	0.106
ACTTTGCC	-0.0473
AGTGACGG	0.231
ATTGGACG	-0.107
GTATATAA	-0.0409
AGAGAAAA	-0.0123
CCCTTTGC	-0.017
ATTTCGGC	0.117
CAGCTGCC	-0.0121
AGTGTTTA	-0.0504
AGCCAAGA	-0.223
ATCTAGTC	0.0386
CGTCCTCC	0.0156
AGCTAAAC	-0.0545
CGTTATGA	0.17
AAAACTGT	-0.0231
AAACTTAC	-0.211
AGAGTCGA	-0.174

Sequence	PBM E-score
CTGACGAA	-0.0766
GACGCTAA	-0.0498
GCACTGCA	-0.211
ATGGGATC	-0.119
CCCCACCA	-0.183
ACGGTCCC	0.168
AGCAAACC	-0.183
CGGTCACG	0.149
GCCGGCTA	0.182
GGTATTCA	-0.0311
AGCACTCC	-0.123
CACCTGTC	0.14
ACAGGGCA	-0.142
GTCTTATA	0.0873
CAGATAAG	-0.0793
GCGCTGCA	0.0911
GTCCCGCA	0.164
CTGGAACA	-0.317
CGCGCTGC	0.0623
CCCGCTGC	0.209
AGTCACTC	-0.186
AGTTGATA	-0.0939
GACTCACA	-0.22
CTGAACAG	-0.2
CTCGATCA	-0.259

Sequence	PBM E-score
ACGCGAAA	-0.209
ATTAGGTG	-0.0718
ACAGCTAA	-0.0946
ACCTGGTA	-0.271
ATCATTAG	-0.142
GAACAAGC	-0.0242
ATCATACA	-0.179
GAAAAGCC	0.208
CGCGTGTC	0.0856
TATGGGCA	-0.206
GCGGCCCC	0.212
TGTTTAAA	-0.00468
ATCTGGAC	-0.0763
AGGTCAGG	-0.141
ATTTTAGC	0.0866
GGATTTCA	0.173
CAGATCGC	-0.0396
ATATCCCC	0.395
GGGTCACC	-0.211
AGCGGGAG	0.0448
AGGGCTAC	-0.283
AGCAGCTC	-0.265
ATGGGTCC	0.271
CTTGGTCA	-0.157
GCACGCTA	-0.105

Sequence	PBM E-score
GCGGAAGA	0.0945
CGCTCATC	0.0962
TAAGAGCA	-0.164
GCTTAGAC	-0.00066
ATGAGTGG	-0.101
CCAAGGCC	0.0375
GCGAATCA	-0.0976
CCCCTGGA	-0.155
ACGCGCAT	-0.217
CAATAAAG	0.126
CACGAACA	-0.1
GCGCTCCC	-0.119
CGCCGGGA	0.236
CATGTATA	-0.127
TCCTGGCA	-0.145
ATGTTTGA	-0.0704
ATAACGTA	0.0409
ATGCTGTG	-0.178
ACCAACCG	-0.00342
GCGAGGCC	-0.044
GACCAGAA	-0.2
GGGCCTTA	0.213
GCCGGGCC	0.172
ACGAATAA	0.0965
TCCTTGCA	-0.0028

Sequence	PBM E-score
AGCCCCCA	-0.2
GTTTCGAA	-0.0651
AGGTCTCG	-0.207
GCAGAACA	-0.0997
GTACGAAC	0.09
AGATATCC	0.045
AAATGATT	-0.0998
ATGTCAGA	-0.247
ACGATCGC	-0.0907
AGCGAACA	-0.0242
CTACTGGA	-0.0154
TCCGTGAA	0.171
CACTTGAG	-0.221
GTAAAGGA	-0.0835
ACCCCCTA	-0.371
AGGGACAA	0.00911
ACTGTGTC	-0.104
AATTAGGG	-0.0274
ACGAACAA	0.0772
